Laboratory results from the supplement of paper PMC3334620.
Whole data set: some 33,000 sequences, median “E-score (-0.5 to 0.5)” near -0.035, cut for the highest 2% near 0.34. The list shows a part of the results.

Each sequence was assayed against T1, Mot3 (UniProt P54785) (assay: PBM E-score (8-mer binding enrichment) (E-score (-0.5 to 0.5)); higher = stronger / more preferred TF binding; most listed sequences are background and not binding sites). Conditions: protein concentration: 200 nM; construct: GST-full length.
T1 sequence: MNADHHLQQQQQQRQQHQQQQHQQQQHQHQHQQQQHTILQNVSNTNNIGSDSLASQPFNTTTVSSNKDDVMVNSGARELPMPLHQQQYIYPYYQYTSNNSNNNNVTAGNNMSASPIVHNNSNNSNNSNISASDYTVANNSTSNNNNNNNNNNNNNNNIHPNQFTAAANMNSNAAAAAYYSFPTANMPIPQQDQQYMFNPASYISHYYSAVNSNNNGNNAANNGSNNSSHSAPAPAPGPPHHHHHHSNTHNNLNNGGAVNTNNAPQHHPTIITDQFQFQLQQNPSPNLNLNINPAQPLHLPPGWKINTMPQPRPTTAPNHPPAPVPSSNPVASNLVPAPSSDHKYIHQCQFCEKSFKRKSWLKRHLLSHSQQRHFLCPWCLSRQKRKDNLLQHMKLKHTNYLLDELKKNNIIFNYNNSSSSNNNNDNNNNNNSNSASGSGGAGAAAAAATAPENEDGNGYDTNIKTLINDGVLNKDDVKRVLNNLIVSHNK
Method in brief: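 Universal all-10-mer Agilent arrays, double-stranded by primer extension on fresh or once-stripped slides, were probed with about 100-200 nM GST-tagged yeast transcription factors made by PURExpress. Fluorescent anti-GST detected bound protein, and masliner normalised the scans. E-scores from the Universal PBM Analysis Suite were given to each ungapped eight-base word pooled with its reverse complement.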
For GGCACCAA, the “PBM E-score” value was 0.315.
For AAAGCTCG, the “PBM E-score” value was -0.117.
With GTAAATGA the “PBM E-score” value was 0.247.
With GGTCTACA the “PBM E-score” value was 0.248.
With ATCGGTCG the “PBM E-score” value was -0.126.
AACGCAAC was tested, and the “PBM E-score” value was 0.168.
ACTAATAT was tested, and the “PBM E-score” value was 0.0372.
AATTAAGG was tested, and the “PBM E-score” value was 0.149.
With CATTCGAG the “PBM E-score” value was -0.0712.
In the case of TCTCGGAA, the “PBM E-score” value is reported as -0.188.
CGTGCAGA was tested, and the “PBM E-score” value was -0.15.
CCGTGTGA was tested, and the “PBM E-score” value was 0.277.
For AGCCAAAG, the “PBM E-score” value was -0.13.
With AATACGCT the “PBM E-score” value was 0.188.
In the case of AATTCAGT, the “PBM E-score” value is reported as -0.0706.
With AAGAACCA the “PBM E-score” value was -0.134.
CAGGGAAC was tested, and the “PBM E-score” value was -0.0529.
For GGCTCCGA, the “PBM E-score” value was -0.172.
In the case of TGCGACCA, the “PBM E-score” value is reported as -0.168.
With AAATGTGC the “PBM E-score” value was 0.203.
For TAGGTGCA, the “PBM E-score” value was 0.0207.
With ACACAGCT the “PBM E-score” value was 0.287.
CCAACAAA was tested, and the “PBM E-score” value was 0.219.
For TCATCACA, the “PBM E-score” value was 0.11.
AACGAATT was tested, and the “PBM E-score” value was 0.0377.
With GAAGATTA the “PBM E-score” value was 0.067.
In the case of GAAGAACA, the “PBM E-score” value is reported as 0.285.
ACAGGAAG was tested, and the “PBM E-score” value was 0.0333.
With AAACCTAA the “PBM E-score” value was 0.0894.
With ATTCGGTA the “PBM E-score” value was 0.111.
For ACGCACGG, the “PBM E-score” value was 0.0438.
For GACTCATC, the “PBM E-score” value was -0.209.
For CAGGTGCC, the “PBM E-score” value was 0.314.
CAACTTGA was tested, and the “PBM E-score” value was 0.206.
In the case of ATGGGGGA, the “PBM E-score” value is reported as -0.245.
ACTGAGCA was tested, and the “PBM E-score” value was -0.0451.
For AAAGAAGT, the “PBM E-score” value was 0.0597.
With AGATGGAC the “PBM E-score” value was -0.214.
GTCGATAA was tested, and the “PBM E-score” value was 0.024.
With AATGCGCT the “PBM E-score” value was -0.0472.
With ACGAATGG the “PBM E-score” value was -0.0484.
CGCAACCA was tested, and the “PBM E-score” value was -0.0278.
For CAACGCTA, the “PBM E-score” value was -0.0278.
CTTTGGGC was tested, and the “PBM E-score” value was -0.14.
In the case of GTCAAGGA, the “PBM E-score” value is reported as 0.16.
For ATAGCTAG, the “PBM E-score” value was -0.0462.
CGAGAGGA was tested, and the “PBM E-score” value was -0.104.
With GCTAACCC the “PBM E-score” value was -0.148.
CCCAGCAA was tested, and the “PBM E-score” value was -0.0854.
In the case of AGTTGACC, the “PBM E-score” value is reported as -0.143.
With CCAGAGAC the “PBM E-score” value was -0.171.
GATTTCTA was tested, and the “PBM E-score” value was -0.132.
CGACGGTA was tested, and the “PBM E-score” value was -0.0139.
CATTGCAG was tested, and the “PBM E-score” value was -0.105.
AGCTACCA was tested, and the “PBM E-score” value was -0.133.
For AAGTTCAA, the “PBM E-score” value was 0.00807.
In the case of AATCTCCC, the “PBM E-score” value is reported as -0.34.
With GAGCCAAA the “PBM E-score” value was -0.2.
With TCAACTCA the “PBM E-score” value was -0.0911.
AATCAGGT was tested, and the “PBM E-score” value was 0.153.
In the case of GATTTGCC, the “PBM E-score” value is reported as 0.203.
For CTATAAAG, the “PBM E-score” value was -0.124.
AAAGCAAA was tested, and the “PBM E-score” value was 0.216.
With CACCCATC the “PBM E-score” value was -0.143.
In the case of GACCGTGA, the “PBM E-score” value is reported as -0.0289.
AAACAGGT was tested, and the “PBM E-score” value was 0.232.
With CAATTAAG the “PBM E-score” value was 0.114.
With CTGTGGCC the “PBM E-score” value was -0.0368.
For AGCTGTTC, the “PBM E-score” value was -0.0345.
For GCCAGGAC, the “PBM E-score” value was -0.233.
GGAAGAAA was tested, and the “PBM E-score” value was -0.00437.
In the case of AAGAAGGG, the “PBM E-score” value is reported as -0.174.
TAGGGACA was tested, and the “PBM E-score” value was -0.164.
For AAACCTAG, the “PBM E-score” value was 0.0425.
In the case of GCAGCCCA, the “PBM E-score” value is reported as -0.183.
For ATATAACC, the “PBM E-score” value was -0.0921.
With GCCGCACA the “PBM E-score” value was -0.203.
For CCCTTTGA, the “PBM E-score” value was -0.0997.
In the case of ATGCAAGG, the “PBM E-score” value is reported as -0.116.
AGTTTGGA was tested, and the “PBM E-score” value was 0.118.
With AAAATATA the “PBM E-score” value was 0.0383.
With ATTAGAAA the “PBM E-score” value was -0.0293.
CACCGGGA was tested, and the “PBM E-score” value was -0.201.
AGTATACT was tested, and the “PBM E-score” value was -0.0295.
For CACATAAG, the “PBM E-score” value was 0.0691.
For GCAAAGGC, the “PBM E-score” value was 0.184.
With GGAAGACC the “PBM E-score” value was -0.207.
With AACTGATT the “PBM E-score” value was -0.0887.
In the case of AGCCAACT, the “PBM E-score” value is reported as -0.0761.
GAGCGTAA was tested, and the “PBM E-score” value was 0.197.
With ACGCCGAT the “PBM E-score” value was 0.0442.
In the case of AGCGTGCG, the “PBM E-score” value is reported as -0.185.
With CCATATAA the “PBM E-score” value was 0.0352.
In the case of CACAACCC, the “PBM E-score” value is reported as -0.196.
GAAGAGAC was tested, and the “PBM E-score” value was -0.0842.
For AACAGCTA, the “PBM E-score” value was -0.052.
CCGCCCTA was tested, and the “PBM E-score” value was -0.123.
For AATACGAA, the “PBM E-score” value was 0.0904.
In the case of GTAGAAGA, the “PBM E-score” value is reported as -0.00994.
CATTTAGC was tested, and the “PBM E-score” value was 0.156.
CTCCGTCA was tested, and the “PBM E-score” value was -0.13.
AGTGGGTC was tested, and the “PBM E-score” value was -0.179.
In the case of AGCGCAAG, the “PBM E-score” value is reported as 0.0235.
For ACGTAACG, the “PBM E-score” value was 0.0865.
With CTAAGTAA the “PBM E-score” value was 0.168.
For CCTGGCCC, the “PBM E-score” value was -0.253.
With CTCAATCA the “PBM E-score” value was -0.0257.
For AGGTTGCC, the “PBM E-score” value was 0.303.
With AATCTGCT the “PBM E-score” value was -0.188.
AGGCACCT was tested, and the “PBM E-score” value was 0.491.
With AAAGTTGG the “PBM E-score” value was 0.179.
With GACGAGTC the “PBM E-score” value was -0.158.
CCGTTACG was tested, and the “PBM E-score” value was -0.0265.
With AGCGTAAC the “PBM E-score” value was 0.0483.
CGCTGCGA was tested, and the “PBM E-score” value was -0.109.
CTTTCCCA was tested, and the “PBM E-score” value was -0.0799.
In the case of ACGCTCTA, the “PBM E-score” value is reported as 0.0713.
For AAAATGAT, the “PBM E-score” value was 0.0691.
With TAATGATA the “PBM E-score” value was 0.141.
With GGTGCCAC the “PBM E-score” value was -0.168.
With GCTAATAA the “PBM E-score” value was 0.0214.
GATGATAC was tested, and the “PBM E-score” value was -0.062.
For TACATACA, the “PBM E-score” value was 0.355.
For ATAAACGG, the “PBM E-score” value was 0.0165.
AGAAAAGG was tested, and the “PBM E-score” value was 0.0803.
For AATCGTGA, the “PBM E-score” value was -0.105.
For CCTATCCG, the “PBM E-score” value was -0.113.
CGGCGACG was tested, and the “PBM E-score” value was -0.18.
CGCGTTAA was tested, and the “PBM E-score” value was 0.368.
For ACCGTAGG, the “PBM E-score” value was -0.0698.
In the case of CACCCCTG, the “PBM E-score” value is reported as -0.171.
In the case of GCCCGCGC, the “PBM E-score” value is reported as -0.25.
In the case of AATCGTCA, the “PBM E-score” value is reported as 0.0537.
CAGGCAGG was tested, and the “PBM E-score” value was 0.306.
For TCATCGAA, the “PBM E-score” value was -0.0178.
In the case of AGTATGAT, the “PBM E-score” value is reported as 0.0049.
CCGATCGC was tested, and the “PBM E-score” value was -0.18.
With AGAGAATC the “PBM E-score” value was -0.0691.
In the case of CGAACACA, the “PBM E-score” value is reported as 0.0814.
In the case of GGGAGATA, the “PBM E-score” value is reported as -0.0973.
In the case of GGATTGCA, the “PBM E-score” value is reported as -0.167.
In the case of AAAGGTGA, the “PBM E-score” value is reported as -0.076.
With GGCGAGCA the “PBM E-score” value was -0.292.
With CCGGTGAG the “PBM E-score” value was -0.29.
In the case of GTCTAAAA, the “PBM E-score” value is reported as -0.0185.
For ACGTTTTG, the “PBM E-score” value was 0.0796.
In the case of CGCGGTTA, the “PBM E-score” value is reported as -0.0223.
For CACGCCAA, the “PBM E-score” value was 0.0196.
In the case of GACGTATA, the “PBM E-score” value is reported as 0.0915.
For ACGTCAGT, the “PBM E-score” value was -0.182.
With GATGAGGC the “PBM E-score” value was -0.0517.
AGTGGTTC was tested, and the “PBM E-score” value was -0.0362.
TTACCAAA was tested, and the “PBM E-score” value was 0.0638.
For ATAAAAGC, the “PBM E-score” value was 0.0662.
With AGTGTCGG the “PBM E-score” value was -0.0559.
For CCTGTACG, the “PBM E-score” value was 0.189.
In the case of CAATCGGA, the “PBM E-score” value is reported as -0.144.
With CACGTCGG the “PBM E-score” value was 0.0553.
In the case of AGCTCTAC, the “PBM E-score” value is reported as 0.143.
With CTGTAGTC the “PBM E-score” value was -0.0244.
For ACTAGCAG, the “PBM E-score” value was 0.109.
ATGCTGCC was tested, and the “PBM E-score” value was -0.0402.
CCGAGAAA was tested, and the “PBM E-score” value was -0.144.
For GAATTCCC, the “PBM E-score” value was -0.15.
In the case of CCTTGCCA, the “PBM E-score” value is reported as -0.00989.
ATACTAAG was tested, and the “PBM E-score” value was -0.05.
With GCCTCTAC the “PBM E-score” value was -0.0382.
In the case of GAAGCGCA, the “PBM E-score” value is reported as -0.156.
ACCGATAA was tested, and the “PBM E-score” value was 0.0054.
For AGCCCTTA, the “PBM E-score” value was -0.16.
With GTCGTAAC the “PBM E-score” value was 0.085.
With GGTAATAC the “PBM E-score” value was 0.112.
